Data from ChEMBL document CHEMBL4689842, “EUbOPEN Chemogenomics Library wave 1” (2021).
Certain results were filed several times, with different values. The list is limited to them. There may be further records. Results that share an entry are repeats across runs, samples, wells, individuals or studies. Brackets tell where a record comes from. A, B and so on number the origins entry by entry. Marks such as [2022-09] give the month of the run.

Legend:
Type in all cases: toxicity, cell-based
[1] = tested on: U2OS; test: Multiplex assay against U2OS; details: human
Summary of the method: (§1)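 Phenotypes for tubulin, mitochondrial mass and membrane permeability are expressed as per cents of healthy-nucleus cells. Cells were stained live at seeding with Hoechst33342, BioTracker Green Microtubule Cytoskeleton Dye, MitoTracker Red and Annexin V Alexa Fluor 680, then imaged after compound addition on a CQ1 microscope at 37°C and 5% CO2. Machine-learning gating in CellPathfinder separated Hoechst high-intensity objects from normal cells, divided normal cells by nuclear state (healthy, pyknosed, fragmented) and divided pyknosed cells into mitotic or apoptotic.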

[2] = tested on: Fibroblast; test: Multiplex assay against human fibroblast; summary of the method: as §1
[3] = tested on: HEK-293T; test: Multiplex assay against HEK293T; details: human; summary of the method: as §1;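 as to Population Tubulin-Different-Phenotype (%): share of the cells with healthy nuclei that show this phenotype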
[4] = 24 h, 1 µM, compound concentration 1 uM, replicate 1
[5] = 24 h, 1 µM, compound concentration 1 uM, replicate 2
[6] = 12 h, 1 µM, compound concentration 1 uM, replicate 1
[7] = 12 h, 1 µM, compound concentration 1 uM, replicate 2
[8] = 12 h, 10 µM, compound concentration 10 uM, replicate 1
[9] = 12 h, 10 µM, compound concentration 10 uM, replicate 2
[10] = 24 h, 10 µM, compound concentration 10 uM, replicate 1
[11] = 24 h, 10 µM, compound concentration 10 uM, replicate 2

Compound: Cc1cc(C)c(-n2ccn3nc(-c4cccnc4)cc23)cc1NC(=O)c1cc(C#N)cc(S(F)(F)(F)(F)F)c1 [BAY-826]
- Population Mitotic Cells (%) [1, 4]: 50% and 15%
- Population Pyknosed Nuclei (%) [1, 4]: 7% and 27%
- Population Mitochondria Different-Phenotype (%) [1, 5]: 97% and 30%
- Population Membrane Permeable-Phenotype (%) [2, 6]: 21% and 5%
- Population Tubulin-Different-Phenotype (%) [2, 6]: 56% and 14%
- Population Mitochondria Different-Phenotype (%) [2, 7]: 10% and 36%
- Population Mitotic Cells (%) [2, 7]: 50% and 8%
- Population Membrane Permeable-Phenotype (%) [2, 4]: 22% and 4%
- Population Tubulin-Different-Phenotype (%) [2, 4]: 34% and 4%
- Population Apoptotic (%) [2, 5]: 20% and 84%
- Population Membrane Permeable-Phenotype (%) [2, 5]: 0% and 41%
- Population Mitochondria Different-Phenotype (%) [2, 5]: 5% and 25%
- Population Mitotic Cells (%) [2, 5]: 80% and 15%
- Population Apoptotic (%) [3, 7]: 20% and 6%
- Population Fragmented Nuclei (%) [3, 5]: 16% and 5%
- Population Mitochondria Different-Phenotype (%) [3, 5]: 10% and 46%
- Population Pyknosed Nuclei (%) [3, 5]: 4% and 25%

Compound: CNC(=O)c1ccc(Nc2ncc(C(F)(F)F)c(NCc3nccnc3N(C)S(C)(=O)=O)n2)cc1 [DEFACTINIB]
- Population Fragmented Nuclei (%) [1, 6]: 4% [compound entry A, 2021-10] and 22% [compound entry B, 2021-10]
- Population Membrane Permeable-Phenotype (%) [1, 7]: 2% [compound entry A, 2021-10] and 16% [compound entry B, 2021-10]
- Population Membrane Permeable-Phenotype (%) [1, 8]: 38% [compound entry A, 2021-10] and 12% [compound entry B, 2021-10]
- Population Fragmented Nuclei (%) [1, 9]: 44% [compound entry A, 2021-10] and 10% [compound entry B, 2021-10]
- Population Mitochondria Different-Phenotype (%) [1, 9]: 9% [compound entry A, 2021-10] and 28% [compound entry B, 2021-10]
- Population Fragmented Nuclei (%) [1, 4]: 5% [compound entry A, 2021-10] and 22% [compound entry B, 2021-10]
- Population Membrane Permeable-Phenotype (%) [1, 4]: 7% [compound entry A, 2021-10] and 40% [compound entry B, 2021-10]
- Population Apoptotic (%) [1, 5]: 0% [compound entry A, 2021-10] and 65% [compound entry B, 2021-10]
- Population Membrane Permeable-Phenotype (%) [1, 5]: 1% [compound entry A, 2021-10] and 38% [compound entry B, 2021-10]
- Population Pyknosed Nuclei (%) [1, 5]: 1% [compound entry A, 2021-10] and 21% [compound entry B, 2021-10]
- Population Fragmented Nuclei (%) [1, 10]: 18% [compound entry A, 2021-10] and 5% [compound entry B, 2021-10]
- Population Hoechst High Intensity Objects (%) [1, 10]: 10% [compound entry A, 2021-10] and 2% [compound entry B, 2021-10]
- Population Membrane Permeable-Phenotype (%) [1, 10]: 43% [compound entry A, 2021-10] and 8% [compound entry B, 2021-10]
- Population Pyknosed Nuclei (%) [1, 10]: 30% [compound entry A, 2021-10] and 5% [compound entry B, 2021-10]
- Population Fragmented Nuclei (%) [1, 11]: 47% [compound entry A, 2021-10] and 2% [compound entry B, 2021-10]
- Population Healthy Nuclei (%) [1, 11]: 29% [compound entry A, 2021-10] and 91% [compound entry B, 2021-10]
- Population Pyknosed Nuclei (%) [1, 11]: 22% [compound entry A, 2021-10] and 6% [compound entry B, 2021-10]
- Population Tubulin-Different-Phenotype (%) [2, 6]: 6% [compound entry A, 2021-10] and 33% [compound entry B, 2021-10]
- Population Tubulin-Different-Phenotype (%) [2, 8]: 36% [compound entry A, 2021-10] and 7% [compound entry B, 2021-10]
- Population Membrane Permeable-Phenotype (%) [2, 4]: 5% [compound entry A, 2021-10] and 19% [compound entry B, 2021-10]
- Population Tubulin-Different-Phenotype (%) [2, 4]: 7% [compound entry A, 2021-10] and 43% [compound entry B, 2021-10]
- Population Apoptotic (%) [2, 5]: 0% [compound entry A, 2021-10] and 60% [compound entry B, 2021-10]
- Population Membrane Permeable-Phenotype (%) [2, 5]: 0% [compound entry A, 2021-10] and 50% [compound entry B, 2021-10]
- Population Pyknosed Nuclei (%) [2, 5]: 4% [compound entry A, 2021-10] and 19% [compound entry B, 2021-10]
- Population Tubulin-Different-Phenotype (%) [2, 5]: 5% [compound entry A, 2021-10] and 20% [compound entry B, 2021-10]
- Population Mitochondria Different-Phenotype (%) [2, 10]: 7% [compound entry A, 2021-10] and 1% [compound entry B, 2021-10]
- Population Tubulin-Different-Phenotype (%) [2, 10]: 49% [compound entry A, 2021-10] and 4% [compound entry B, 2021-10]
- Population Tubulin-Different-Phenotype (%) [3, 6]: 5% [compound entry A, 2021-10] and 18% [compound entry B, 2021-10]
- Population Tubulin-Different-Phenotype (%) [3, 7]: 10% [compound entry A, 2021-10] and 42% [compound entry B, 2021-10]
- Population Tubulin-Different-Phenotype (%) [3, 8]: 26% [compound entry A, 2021-10] and 2% [compound entry B, 2021-10]
- Population Apoptotic (%) [3, 9]: 21% [compound entry A, 2021-10] and 3% [compound entry B, 2021-10]
- Population Tubulin-Different-Phenotype (%) [3, 9]: 48% [compound entry A, 2021-10] and 10% [compound entry B, 2021-10]
- Population Fragmented Nuclei (%) [3, 5]: 22% [compound entry A, 2021-10] and 5% [compound entry B, 2021-10]
- Population Mitochondria Different-Phenotype (%) [3, 5]: 2% [compound entry A, 2021-10] and 15% [compound entry B, 2021-10]
- Population Tubulin-Different-Phenotype (%) [3, 5]: 11% [compound entry A, 2021-10] and 62% [compound entry B, 2021-10]
- Population Mitochondria Different-Phenotype (%) [3, 10]: 14% [compound entry A, 2021-10] and 3% [compound entry B, 2021-10]
- Population Pyknosed Nuclei (%) [3, 10]: 17% [compound entry A, 2021-10] and 5% [compound entry B, 2021-10]
- Population Apoptotic (%) [3, 11]: 28% [compound entry A, 2021-10] and 8% [compound entry B, 2021-10]
- Population Fragmented Nuclei (%) [3, 11]: 5% [compound entry A, 2021-10] and 22% [compound entry B, 2021-10]
- Population Mitochondria Different-Phenotype (%) [3, 11]: 21% [compound entry A, 2021-10] and 2% [compound entry B, 2021-10]
- Population Tubulin-Different-Phenotype (%) [3, 11]: 62% [compound entry A, 2021-10] and 10% [compound entry B, 2021-10]

Compound: C[C@]1(O)C[C@@H](c2nc(-c3ccc4ccc(-c5ccccc5)nc4c3)c3c(N)nccn32)C1 [LINSITINIB]
- Population Membrane Permeable-Phenotype (%) [1, 6]: 33% and 9%
- Population Hoechst High Intensity Objects (%) [1, 4]: 5% and 1%
- Population Apoptotic (%) [1, 5]: 40% and 0%
- Population Hoechst High Intensity Objects (%) [1, 5]: 4% and 13%
- Population Mitotic Cells (%) [2, 6]: 43% and 6%
- Population Tubulin-Different-Phenotype (%) [2, 6]: 23% and 6%
- Population Mitochondria Different-Phenotype (%) [2, 7]: 7% and 27%
- Population Tubulin-Different-Phenotype (%) [2, 7]: 7% and 72%
- Population Tubulin-Different-Phenotype (%) [2, 4]: 20% and 6%
- Population Mitochondria Different-Phenotype (%) [2, 5]: 10% and 36%
- Population Tubulin-Different-Phenotype (%) [2, 5]: 10% and 63%
- Population Tubulin-Different-Phenotype (%) [3, 6]: 49% and 8%
- Population Mitochondria Different-Phenotype (%) [3, 7]: 50% and 15%
- Population Tubulin-Different-Phenotype (%) [3, 7]: 85% and 17%
- Population Tubulin-Different-Phenotype (%) [3, 4]: 73% and 18%
- Population Apoptotic (%) [3, 5]: 19% and 6%
- Population Mitochondria Different-Phenotype (%) [3, 5]: 41% and 3%
- Population Tubulin-Different-Phenotype (%) [3, 5]: 92% and 24%

Compound: CCC1=C[C@@H]2C[N@](C1)Cc1c([nH]c3ccccc13)[C@@](C(=O)OC)(c1cc3c(cc1OC)N(C)[C@H]1[C@@](O)(C(=O)OC)[C@H](OC(C)=O)[C@]4(CC)C=CCN5CC[C@]31[C@@H]54)C2.O=C(O)C(O)C(O)C(=O)O.O=C(O)C(O)C(O)C(=O)O [VINORELBINE TARTRATE]
- Population Hoechst High Intensity Objects (%) [1, 6]: 2% and 7%
- Population Membrane Permeable-Phenotype (%) [1, 6]: 57% and 16%
- Total Cell Count [1, 6]: 145 and 2893
- Population Apoptotic (%) [1, 7]: 64% and 20%
- Population Membrane Permeable-Phenotype (%) [1, 7]: 52% and 11%
- Total Cell Count [1, 7]: 105 and 3493
- Population Membrane Permeable-Phenotype (%) [1, 8]: 66% and 13%
- Population Apoptotic (%) [1, 9]: 59% and 17%
- Total Cell Count [1, 4]: 3211 and 173
- Total Cell Count [1, 5]: 111 and 3609
- Population Membrane Permeable-Phenotype (%) [1, 11]: 61% and 15%
- Population Mitotic Cells (%) [1, 11]: 17% and 52%
- Population Membrane Permeable-Phenotype (%) [2, 6]: 11% and 3%
- Population Pyknosed Nuclei (%) [2, 7]: 2% and 8%
- Population Tubulin-Different-Phenotype (%) [2, 7]: 33% and 0%
- Population Membrane Permeable-Phenotype (%) [2, 4]: 2% and 7%
- Total Cell Count [2, 4]: 440 and 140
- Population Apoptotic (%) [2, 5]: 0% and 60%
- Population Membrane Permeable-Phenotype (%) [2, 5]: 33% and 9%
- Population Apoptotic (%) [2, 11]: 20% and 100%
- Population Mitotic Cells (%) [2, 11]: 80% and 0%
- Population Pyknosed Nuclei (%) [2, 11]: 7% and 1%
- Population Membrane Permeable-Phenotype (%) [3, 6]: 16% and 4%
- Population Tubulin-Different-Phenotype (%) [3, 6]: 25% and 5%
- Population Tubulin-Different-Phenotype (%) [3, 7]: 47% and 2%
- Population Membrane Permeable-Phenotype (%) [3, 8]: 23% and 2%
- Population Tubulin-Different-Phenotype (%) [3, 8]: 35% and 5%
- Population Tubulin-Different-Phenotype (%) [3, 9]: 52% and 2%
- Population Mitochondria Different-Phenotype (%) [3, 4]: 5% and 25%
- Population Tubulin-Different-Phenotype (%) [3, 4]: 6% and 55%
- Population Tubulin-Different-Phenotype (%) [3, 5]: 71% and 1%
- Population Membrane Permeable-Phenotype (%) [3, 10]: 2% and 12%
- Population Tubulin-Different-Phenotype (%) [3, 10]: 6% and 54%
- Population Mitochondria Different-Phenotype (%) [3, 11]: 26% and 6%
- Population Tubulin-Different-Phenotype (%) [3, 11]: 79% and 3%
